The campaign covered roughly 48,000 compounds. About 550 (1.1%) were called active. Another 4% or so got no clear call; they are omitted. Cut-off read from the data, not from the text of the source: active = potency below about 15 µM; inconclusive = mostly about 16 µM to 33 µM; inactive = weaker than that. This is one part of the list.
Potency is the fitted concentration of half-maximal effect.

In this test the target is Lysosomal acid glucosylceramidase (Homo sapiens) (UniProt P04062). Put plainly: Glucocerebrosidase.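 Note: the screen sought inhibitors.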 Conditions: purified enzyme, resorufin glucoside fluorescence (screen aimed at inhibitors), 20 min. In short, it runs like this: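 Wild-type enzyme at 0.2 nM final in 50mM citric acid/KH2PO4, 10mM sodium taurocholate, 0.01% tween-20, pH 5.9, with resorufin beta-D-glucopyranoside at 30 uM final. Compounds titrated, 20 min at RT, red fluorescence read; AC50 from titration.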
UniProt P04062, sequence (P04062 whole entry, looked up): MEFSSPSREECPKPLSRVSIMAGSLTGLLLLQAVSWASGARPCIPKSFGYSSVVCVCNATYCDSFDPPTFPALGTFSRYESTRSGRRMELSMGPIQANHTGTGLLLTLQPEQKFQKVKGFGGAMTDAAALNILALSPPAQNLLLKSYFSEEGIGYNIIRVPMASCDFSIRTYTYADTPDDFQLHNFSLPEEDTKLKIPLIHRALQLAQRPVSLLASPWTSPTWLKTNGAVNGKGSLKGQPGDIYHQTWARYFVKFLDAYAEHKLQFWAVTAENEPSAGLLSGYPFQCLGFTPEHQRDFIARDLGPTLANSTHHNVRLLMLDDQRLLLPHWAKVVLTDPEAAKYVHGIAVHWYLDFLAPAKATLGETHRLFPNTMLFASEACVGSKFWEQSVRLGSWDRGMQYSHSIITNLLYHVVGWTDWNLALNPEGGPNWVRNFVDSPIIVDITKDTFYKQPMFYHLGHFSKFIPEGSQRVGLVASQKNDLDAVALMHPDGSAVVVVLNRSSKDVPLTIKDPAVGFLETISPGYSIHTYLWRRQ
Consider `CSc1ccccc1NC(=O)CN(Cc1ccc(Cl)cc1)S(C)(=O)=O`, for which the Potency is inactive: > 76.9 µM.

For the compound `Cc1nn(Cc2ccc(Cl)cc2)c(C)c1NC(=O)c1cc(-c2ccco2)on1`, the Potency is inactive: > 76.9 µM.

As for `Cn1c(=O)cc(OCCCC(=O)Nc2cccnc2)c2ccccc21`, the Potency was inactive: > 76.9 µM.

Consider `O=C(CN1CCc2ccccc2C1)N1CCN(S(=O)(=O)c2ccccc2)CC1`, for which the Potency was inactive: > 76.9 µM.

For `O=C(Nc1ccccc1-c1nnn(CC(=O)N2CCCc3ccccc32)n1)c1ccco1`, the Potency is inactive: > 76.9 µM.

As to `CCn1nc(C(=O)OCC(=O)c2cc(C)n(Cc3cccs3)c2C)c2ccccc2c1=O`, the Potency is inactive: > 76.9 µM.

As to `COc1cc(-c2nnc3sc(C4CCCCC4)nn23)cc(OC)c1OC`, the Potency was active: 7 µM.

Consider `CCOC(=O)C1CCCN(CC(=O)NC2CC2)C1` (centres undefined), for which the Potency is inactive: > 76.9 µM.

As for `CCCn1c(SCCN2C(=O)c3ccccc3C2=O)n[nH]c1=O`, the Potency was inactive: > 76.9 µM.

`CC(=O)c1c(C)[nH]c(C(=O)N2CCCCCC2)c1C`: the Potency was inactive: > 76.9 µM.

For the compound `Cc1cccc(NC(=O)c2cc3c(n(-c4ccccc4)c2=O)CCCC3=O)n1`, the Potency is inactive: > 76.9 µM.

`CCn1nnc(NC(=O)COc2ccc(C3CCCCC3)cc2)n1`: the Potency is inactive: > 76.9 µM.

For `O=C1CCCCCN1CSc1nc2ccccc2s1`, the Potency was inactive: > 76.9 µM.

Consider `COC(=O)c1ccc(S(=O)(=O)NCc2cccc(OC)c2)n1C`, for which the Potency is inactive: > 76.9 µM.

For the compound `O=S(=O)(NCCOc1ccc(F)cc1)c1ccc2c(c1)OCCO2`, the Potency was inactive: > 76.9 µM.

Consider `CCN1CCCC1CNS(=O)(=O)c1ccc(C(=O)Nc2ccccc2)cc1` (centres undefined), for which the Potency is inactive: > 76.9 µM.

Take `CC(C)C1(C)C(=O)N=C2c3ccccc3C(=O)N21` (centres undefined): the Potency is inactive: > 76.9 µM.

Take `CS(=O)(=O)N1CCCC(C(=O)NCc2ccccc2Cl)C1` (centres undefined): the Potency was inactive: > 76.9 µM.

Take `CN1C(=S)SC(C)(C)C1NO` (centres undefined): the Potency was inactive: > 76.9 µM.

In the case of `COc1ccc(OC)c(NC(=O)CSc2nnc(N)s2)c1`, the Potency is inactive: > 76.9 µM.

For `CC(C)C(OC(=O)c1cccs1)C(=O)NCc1ccco1` (centres undefined), the Potency was inactive: > 76.9 µM.

Turning to `CCc1ccc(N2CCCn3c2nc2c3c(=O)n(CCN3CCOCC3)c(=O)n2C)cc1`, the Potency was inactive: > 76.9 µM.

On to `CCOc1ccc(NC(=O)c2ccccc2CO)cc1`, for which the Potency is inactive: > 76.9 µM.

Take `Cc1nc(NCCCn2ccnc2)c2oc3ccccc3c2n1`: the Potency was inactive: > 76.9 µM.

With `O=C(CSc1ncn[nH]1)c1ccc2c(c1)OCCO2`, the Potency is inactive: > 76.9 µM.

On to `CC(=O)N1CCN(c2ccc(NC(=O)c3ccc(C(C)(C)C)cc3)cc2)CC1`, for which the Potency result is “inactive”.

In the case of `Cc1ccc(S(=O)(=O)N2CCCC2C(=O)OCC(=O)Nc2ccc3c(c2)OCO3)cc1` (centres undefined), the Potency is inactive: > 76.9 µM.

In the case of `COc1ccc(Cn2nnnc2C(c2cccs2)N2CCOCC2)cc1` (centres undefined), the Potency was inactive: > 76.9 µM.

Take `N#CC1=C(N)N(c2ccc(Br)cc2)C2=C(C(=O)CCC2)C1c1cccnc1` (centres undefined): the Potency was inactive: > 76.9 µM.

As to `Cc1c(O)ccc2c3c(c(=O)oc12)CCCC3`, the Potency was inactive: > 76.9 µM.

Take `O=C(CSc1nnc(-c2cccs2)n1CC1CCCO1)c1cc2ccccc2o1` (centres undefined): the Potency was inactive: > 76.9 µM.

For the compound `O=C(Cn1nnc(-c2ccccc2NC(=O)c2ccco2)n1)NC1CCCCC1`, the Potency was inactive: > 76.9 µM.

On to `COc1cccc(Nc2ncnc3c2cnn3C)c1`, for which the Potency is inactive: > 76.9 µM.

As for `O=C(CSc1ncnc2c1oc1ccccc12)NCC1CCCO1` (centres undefined), the Potency was inactive: > 76.9 µM.

On to `CC(C)c1ccccc1N1CC(C(=O)O)CC1=O` (centres undefined), for which the Potency was inactive: > 76.9 µM.

In the case of `O=C(CCn1nnc(-c2cccs2)n1)N1CCc2ccccc2C1`, the Potency is inactive: > 76.9 µM.

Turning to `CCC(=O)Nc1ccccc1Oc1ccccc1`, the Potency is inactive: > 76.9 µM.

For `CC(=O)Nc1sc(C)c(C)c1C(=O)OC1CCOC1=O` (centres undefined), the Potency is inactive: > 76.9 µM.

In the case of `Cc1ccnc(N2CCC(C(=O)Nc3ccc(Oc4ccccc4)cc3)CC2)n1`, the Potency was inactive: > 76.9 µM.

Turning to `CCOc1nc(C#N)nc(N2CCCCC2)n1`, the Potency is inactive: > 76.9 µM.

For `FC(F)(F)c1ccccc1Nc1nccs1`, the Potency is inactive: > 76.9 µM.

On to `O=C1C2CCCN2C(c2ccc(Cl)cc2)N1c1nccs1` (centres undefined), for which the Potency was inactive: > 76.9 µM.

For the compound `N#CCCCSc1nnc(-c2ccccn2)o1`, the Potency was inactive: > 76.9 µM.

For `CC(C)CCN1C(=O)c2ccc(C(=O)NCC3CCCO3)cc2C1=O` (centres undefined), the Potency is inactive: > 76.9 µM.

As for `CCOC(=O)Nc1sc(=S)n(C)c1C`, the Potency was inactive: > 76.9 µM.

With `CC1(c2ccccc2)NC(=O)N(CC(=O)N2CCOCC2)C1=O` (centres undefined), the Potency is inactive: > 76.9 µM.

In the case of `CCC(NC(=O)NCc1cccnc1)(C(F)(F)F)C(F)(F)F`, the Potency was inactive: > 76.9 µM.

Consider `CCn1c(COc2cccc(C)c2)nnc1SCC(=O)Nc1cccc(C(=O)O)c1`, for which the Potency was inactive: > 76.9 µM.

Take `O=C(CSc1nc2ccccc2o1)NCc1n[nH]c(=O)c2ccccc12`: the Potency is inactive: > 76.9 µM.

As to `COc1cc(C(c2nnnn2C2CCCC2)N2CCN(C)CC2)cc(OC)c1OC` (centres undefined), the Potency is inactive: > 76.9 µM.

Turning to `CC(=O)C1=C(C)OC(N)=C(C#N)C1c1ccncc1` (centres undefined), the Potency was inactive: > 76.9 µM.

Turning to `COCCCn1c(SCC(=O)N2CC(=O)Nc3ccccc32)nnc1-c1ccoc1C`, the Potency was inactive: > 76.9 µM.

Take `CCN(CC)Cc1csc(C(N)=O)c1`: the Potency was inactive: > 76.9 µM.

As for `CCC1CCCCN1C(=O)CSc1nnc(-c2ccco2)o1` (centres undefined), the Potency was inactive: > 76.9 µM.

Turning to `COCC(=O)NC1CCN(C(=O)Nc2ccc(Br)cc2)CC1`, the Potency was inactive: > 76.9 µM.

For `Nc1cc(C(=O)O)ccc1Nc1ccc(F)c(F)c1`, the Potency was inactive: > 76.9 µM.

In the case of `CC1NC(=O)N(C)C2NC(=O)N(C)C(c3ccccc3)C12` (centres undefined), the Potency was inactive: > 76.9 µM.

For `O=S(=O)(c1ccccc1)N(Cc1nc(-c2ccccc2)no1)C1CCCCC1`, the Potency was inactive: > 76.9 µM.

In the case of `CCCS(=O)(=O)N1CCN(Cc2ccccc2OCC)CC1`, the Potency was inactive: > 76.9 µM.

As to `O=c1c2[nH]c3ccc(F)cc3c2ncn1CCCn1ccnc1`, the Potency was inactive: > 76.9 µM.

For the compound `Cn1c(=O)c2c(nc(N3CCOCC3)n2CC(=O)C23CC4CC(CC(C4)C2)C3)n(C)c1=O`, the Potency was inactive: > 76.9 µM.

Take `Cn1c(=O)c2c(nc(N3CCN(Cc4ccccc4)CC3)n2CCCc2ccccc2)n(C)c1=O`: the Potency was inactive: > 76.9 µM.

`O=C(NCCN1CCc2ccccc2C1)C1CC(=O)N(C2CCCC2)C1` (centres undefined): the Potency is inactive: > 76.9 µM.

On to `OCc1nc2ccccc2n1CCCOc1ccc(Br)cc1`, for which the Potency result was “inactive”.

As to `c1ccc2c(CNn3cnnc3)cccc2c1`, the Potency is inactive: > 76.9 µM.

Take `O=S(=O)(Nc1cnc2ccccc2c1)N1CCCCCC1`: the Potency was inactive: > 76.9 µM.

Turning to `Nc1ccccc1OCCOCCOc1ccccc1N`, the Potency was inactive: > 76.9 µM.

With `N#Cc1ccc(OCc2nnc(SCC(=O)N3CCCc4ccccc43)n2-c2ccccc2)cc1`, the Potency entry is “inactive”.

In the case of `CC1CCN(CCNC(=O)c2ccc(NC(=O)C3CCCO3)cc2)CC1` (centres undefined), the Potency is inactive: > 76.9 µM.

As for `O=C(NCCN1CCOCC1)c1ccccc1-c1ccccc1`, the Potency was inactive: > 76.9 µM.

With `Cc1cc2cc(C)c3nnc(SCC(=O)NCc4ccco4)n3c2cc1C`, the Potency was inactive: > 76.9 µM.

In the case of `O=C(COC(=O)c1cnccn1)c1ccccc1`, the Potency was inactive: > 76.9 µM.

`O=C(CC1SCCNC1=O)Nc1cc(Cl)cc(Cl)c1` (centres undefined): the Potency is inactive: > 76.9 µM.

In the case of `CCN(CC)CCNC(=O)c1ccc2c(=O)n(CCc3ccccc3)c(=O)[nH]c2c1`, the Potency was inactive: > 76.9 µM.

For `COc1ccc(CCNC(=O)CCC(=O)N2CCN(S(=O)(=O)c3ccccc3)CC2)cc1OC`, the Potency is inactive: > 76.9 µM.

With `COc1ccc(CCNC(=O)C2CCN(S(=O)(=O)c3cc(OC)ccc3OC)CC2)cc1`, the Potency is inactive: > 76.9 µM.

Turning to `CCCc1oc2c(c(=O)c1CC)C(=O)CC(C)(C)C2`, the Potency is inactive: > 76.9 µM.

Take `O=C1CN(Cc2ccccc2)C(=NCc2ccco2)S1`: the Potency was inactive: > 76.9 µM.

Consider `CS(=O)(=O)N(CC(N)=O)Cc1ccc(Cl)cc1`, for which the Potency was inactive: > 76.9 µM.

`Cc1ccc(S(=O)(=O)NC2=NCN(C3CCN(Cc4ccccc4)CC3)CN2)cc1`: the Potency is inactive: > 76.9 µM.

For `Cc1ccccc1S(=O)(=O)NC1OC(=O)C(Cl)=C1Cl` (centres undefined), the Potency was inactive: > 76.9 µM.

For the compound `COc1cc(NC(=O)c2ccco2)c(OC)cc1NC(=O)CCC(=O)Nc1cc(C)cc(C)c1`, the Potency is inactive: > 76.9 µM.

As to `COc1ccc(-n2nc(C(=O)NCC(=O)NCC3CCCO3)c3ccccc3c2=O)cc1` (centres undefined), the Potency was inactive: > 76.9 µM.

Take `COc1cccc(C(=O)NC2=NCCS2)c1`: the Potency was inactive: > 76.9 µM.

Turning to `Cc1ccc(-c2nc(C#N)c(NCc3ccco3)o2)cc1`, the Potency was inactive: > 76.9 µM.

Regarding `CCCCS(=O)(=O)/C=C\C=C/S(=O)(=O)CCCC`, the Potency is inactive: > 76.9 µM.

Take `Cn1c(=O)c2c(nc(CN3CCN(c4ccccc4)CC3)n2CCN2CCOCC2)n(C)c1=O`: the Potency is inactive: > 76.9 µM.

As for `Cc1cc(C)nc(NC2=NCC(=O)N2c2cc(Cl)cc(Cl)c2)n1`, the Potency is inactive: > 76.9 µM.

For the compound `CCOC(=O)c1ccc(NC(=O)CSc2ncccn2)cc1`, the Potency is inactive: > 76.9 µM.

Turning to `O=S(=O)(NCc1ccccc1)c1ccc(S(=O)(=O)N2CCCCC2)cc1`, the Potency was inactive: > 76.9 µM.

With `Cc1nc2cc(CO)ccc2n1C`, the Potency was inactive: > 76.9 µM.

On to `COc1cc2[nH]c(=O)n(CCCCCC(=O)NCCCN3CCC(C)CC3)c(=O)c2cc1OC`, for which the Potency was inactive: > 76.9 µM.

With `O=C(OCC#CCSc1nc2ccccc2o1)c1ccco1`, the Potency was inactive: > 76.9 µM.

For `CCc1ccc2[nH]c(=O)c(CN(CCN3CCCC3)C(=O)NC3CCCCC3)cc2c1`, the Potency is inactive: > 76.9 µM.
